Measured values as given in PubChem BioAssay AID686979 (National Center for Advancing Translational Sciences (NCATS), 2013).
Where “and” joins values, the source holds several entries; their conditions need not be identical. Equal entries are not always repeated. About 50,000 (12%) of roughly 420,000 compounds were called active. The shares of active, inactive and inconclusive entries below differ from those in the screen. Calls come from the whole dose curve; as a rule, active = well fitted inhibition curve with a large enough effect; inconclusive = small, poorly fitted or top-dose-only effect; inactive = flat fitted curve, though single readings scatter. Potencies of inconclusive entries are left out as doubtful fits.
% is set by controls: 0 for no effect and ±100 for the full control effect; potency is the fitted concentration of half-maximal effect; tags give direction and shape of the fitted curve.

Test: qHTS for Inhibitors of human tyrosyl-DNA phosphodiesterase 1 (TDP1): qHTS in cells in presence of CPT; note: nearly all actives have a fitted effect of over 55% in size
Details: chicken DT40 Tdp1-/-;hTDP1 cells + 20 nM CPT, ATP luminescence, 48 h; activity change, negative = growth inhibition: at 46.2 µM (top of the series) unless noted
Summary of the method: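 Cell growth measured by CellTiter-Glo luminescence after a minimum 48 h, 37 C compound exposure with 20 nM CPT in Tdp1-knockout DT40 cells stably expressing hTDP1, seeded 400/well; qHTS titration format.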
For `CCOC(=O)C1(C)CCCN(C(=O)c2ccccc2)C1` (configuration not stated), the Potency was inconclusive [inhibitor, full curve]. With `O=c1c(-c2cccs2)nc2cnc(N3CCNCC3)nc2n1CCc1ccccc1` the Potency was inconclusive [inhibitor, single point]. In the case of `CCCc1cc(=O)[nH]c(SCCOc2ccc(OCC)cc2)n1`, the Potency is reported as inconclusive [inhibitor, single point]. In the case of `COc1ccc(OC)c(NC2=NC3(CCCC3)N=C(N)N2)c1`, the “activity change, negative = growth inhibition” value is reported as inactive: -21.2%. In the case of `O=S(=O)(c1ccccc1)N1CCC(O)(CSc2ccc(F)cc2)CC1`, the Potency is reported as inconclusive [inhibitor, single point]. In the case of `Cc1ccc(/C=N/n2c(-c3ccncc3)n[nH]c2=S)s1`, the activity change, negative = growth inhibition is reported as inconclusive: -30% [inhibitor]. With `CCCN1CNc2c(c(=O)[nH]c(=S)n2CCc2ccc(Cl)c(Cl)c2)C1` the Potency was inconclusive [inhibitor, single point]. For `CCCCCCSc1cccc(-c2nc3ccc(Cl)cn3c2NCCCC)c1`, the Potency was active: 20.6 µM and active: 16.4 µM. With `CCOc1ccc(Nc2c(S(=O)(=O)c3ccc(C)cc3)cnc3cc(OC)c(OC)cc23)cc1` the Potency was inconclusive [inhibitor, partial curve]. With `O=C(NC(Cc1cn(Cc2ccccc2)cn1)C(=O)O)OCC1c2ccccc2-c2ccccc21` (configuration not stated) the Potency was active: 14.6 µM. In the case of `COc1ccccc1NC(=O)CSC1=Nc2ccccc2C2=NC(CC(=O)NCCc3ccccc3)C(=O)N12` (configuration not stated), the Potency is reported as inconclusive [inhibitor, single point]. In the case of `CN1CCN(c2ncncc2-c2ccc(N(C)C)cc2)CC1`, the Potency is reported as inconclusive [inhibitor, single point]. For `Cc1cc(-c2ccnc(-n3ncc(C(=O)NCCc4cccnc4)c3C)n2)c(C)s1`, the activity change, negative = growth inhibition was inactive: -2.68% [at 9.04 µM]. In the case of `CCCCC1=CC2=C(c3ccco3)C(=O)C(C)(OC(=O)c3ccc(OC)cc3)C(=O)C2=CN1C1CCCCC1` (configuration not stated), the Potency is reported as active: 4.61 µM. With `CC(Sc1nnc(-c2ccccc2)c(-c2ccccc2)n1)C(=O)N1CCc2ccccc21` (configuration not stated) the Potency was inconclusive [inhibitor, single point]. For `C/C(=N\NS(=O)(=O)c1ccc([N+](=O)[O-])cc1)c1cccs1`, the Potency was inconclusive [inhibitor, single point]. With `CCOC(=O)c1c(NC(=O)CSc2nc3ccccc3s2)sc(C)c1C` the Potency was active: 16.4 µM. For `CSCCOC(=O)COc1ccc(/C=N/NC(=O)c2nn(C)cc2Cl)cc1`, the “activity change, negative = growth inhibition” value was inactive: -19.3%. With `Cc1ccc(-c2csc(NC(=O)N3CCOCC3)n2)cc1` the Potency was inconclusive [inhibitor, single point]. With `C/C(=N\NC(=O)c1cc(C)nc2ccccc12)c1cccc(Cl)c1` the “activity change, negative = growth inhibition” value was inactive: -25.8%. In the case of `COc1cc(NS(=O)(=O)c2ccc3c(c2)CC(=O)N3)cc(OC)c1OC`, the “activity change, negative = growth inhibition” value is reported as inactive: -2.35%. In the case of `Cc1cccc(/C(N)=N/OC(=O)c2cccs2)c1`, the “activity change, negative = growth inhibition” value is reported as inactive: -28.8%. With `Nc1nc(-c2ccccc2)cn1N` the Potency was inconclusive [inhibitor, single point]. In the case of `CC(=O)Nc1cccc(NC(=O)c2cc3ccccc3o2)c1`, the Potency is reported as active: 16.4 µM. For `COC(=O)c1ccc(COC(=O)c2[nH]c(C)c(C(C)=O)c2C)o1`, the Potency was active: 10.3 µM. In the case of `CCc1ccccc1NC(=O)Cn1nnc(-c2nc(-c3ccncc3)no2)c1N`, the “activity change, negative = growth inhibition” value is reported as inactive: -4.95%. For `Cc1ccc(S(=O)(=O)NCc2ccncc2)c(C)c1C`, the Potency was active: 1.84 µM. For `CCCCCNC(=O)C(c1cccc2ccccc12)n1c(=O)c(-c2cc3ccccc3[nH]2)nc2ccccc21` (configuration not stated), the Potency was inconclusive [inhibitor, single point]. In the case of `Cc1cc(C)c(C)c(S(=O)(=O)N2CCC(C(=O)N3CC(C)CC(C)C3)CC2)c1C` (configuration not stated), the Potency is reported as active: 18.4 µM. With `CC(C)(C)c1ccc(OCCCCCCN2CCNCC2)cc1` the Potency was active: 18.4 µM. With `C[C@H](CO)N1C[C@H](C)[C@@H](CN(C)C(=O)C2CCCCC2)OCc2cn(nn2)CCCC1=O` the Potency was inconclusive [inhibitor, single point]. With `Cc1cc(Cl)ccc1OCC(=O)NN1C(=O)C2C3C=CC(C3)C2C1=O` (configuration not stated) the “activity change, negative = growth inhibition” value was inactive: 22.3%. In the case of `O=C(CCC(=O)c1ccc(Oc2ccccc2)cc1)Nc1cccc(Cl)c1`, the “activity change, negative = growth inhibition” value is reported as inactive: 15.8%. For `Cc1ccc2c(CN3CCN(CCO)CC3)cc(=O)oc2c1`, the “activity change, negative = growth inhibition” value was inactive: -11.2%. For `Cc1ccc(NC2=C(N3CCOCC3)C(=O)c3ccccc3C2=O)cc1`, the Potency was active: 20.6 µM. In the case of `COC(=O)c1cc(S(=O)(=O)Nc2nn(C)c3cccc(F)c23)oc1C`, the “activity change, negative = growth inhibition” value is reported as inactive: -0.812%. With `COc1ccc(NS(=O)(=O)c2ccc3c(c2)NC(=O)C(C)S3)cc1` (configuration not stated) the Potency was inconclusive [inhibitor, single point]. With `COc1ccccc1CNC(=O)COC(=O)C1CCN(S(=O)(=O)c2ccc(C)c(C)c2)CC1` the “activity change, negative = growth inhibition” value was inactive: 1.38%. In the case of `COc1ccc(NC(=O)c2cnc(SCC(=O)NCCc3ccccc3)n(C)c2=O)cc1`, the Potency is reported as inconclusive [inhibitor, single point]. With `O=P(c1ccccc1)(c1ccccc1)c1nc(-c2ccc(Cl)cc2)oc1N1CCOCC1` the Potency was inconclusive [inhibitor, single point]. For `Cc1ccc(NC(=O)c2c(C)oc3ncn(C)c(=O)c23)cc1F`, the Potency was inconclusive [inhibitor, single point]. With `CCc1nc2c(OCc3ccc(Cl)cc3Cl)cccn2c1N(C=O)Cc1ccc(OC)cc1` the Potency was inconclusive [inhibitor, single point]. With `COc1cccc2c1Oc1ncccc1N(c1ccc(C(=O)NCc3ccccc3C)s1)C2` the Potency was inconclusive [inhibitor, single point]. With `CC1=C(C(=O)N2CCOCC2)CC(CC(=O)NC2CCCCC2)C(=O)N1CCCN1CCCC1=O` (configuration not stated) the “activity change, negative = growth inhibition” value was inactive: -12.1%. In the case of `CCOC(=O)c1ccc(NC(=O)c2c(NC(=O)CCC(=O)O)sc3c2CCCCC3)cc1`, the “activity change, negative = growth inhibition” value is reported as inactive: 0.051%. For `O=C(NN1C(=O)C2C(C1=O)C1C=CC2C12CC2)c1ccccc1` (configuration not stated), the “activity change, negative = growth inhibition” value was inactive: -12.1%. In the case of `CC(=O)c1c(NC(=O)C(C)C)nc(C)nc1-c1ccccc1`, the “activity change, negative = growth inhibition” value is reported as inactive: 0.167%. In the case of `Cc1ccc(C)c(-c2csc(N)c2C(=O)OC(C)C)c1`, the Potency is reported as inconclusive [inhibitor, single point]. For `O=C(Nc1ccccn1)c1cc(-c2ccc(Cl)s2)nc2ccccc12`, the Potency was inconclusive [inhibitor, single point]. With `COc1cccc(NC(=O)C2CCN(S(=O)(=O)c3ccc4c(c3)CC(C)N4C(C)=O)CC2)c1` (configuration not stated) the Potency was active: 14.6 µM. With `O=C(OCc1cccc(F)c1)c1ccc2c(c1)-c1ccccc1C2=O` the Potency was inconclusive [inhibitor, single point]. For `O=C(NCc1ccccn1)c1cnn(-c2nccc(-c3cccs3)n2)c1C1CC1`, the activity change, negative = growth inhibition was inactive: 19% [at 9.04 µM]. For `O=C(COc1ccc(Cl)cc1Cl)NC(=S)N1CCCc2ccccc21`, the Potency was inconclusive [inhibitor, partial curve, poor fit]. With `CCOc1ccccc1NC(=O)N1CCCc2ccccc21` the Potency was inconclusive [inhibitor, partial curve, poor fit]. With `O=c1cc(-c2ccc(O)cc2)oc2c(O)c(O)c(O)c(O)c12` the Potency was active: 23.1 µM. With `CCCCC(=O)Nc1ccc2nc(SCC(=O)N3CCOCC3)sc2c1` the Potency was inconclusive [inhibitor, single point]. In the case of `CCc1nc2ccc(C(=O)N(C)Cc3ccccc3)cn2c1N(C)CCCc1ccccc1`, the Potency is reported as inconclusive [inhibitor, single point]. For `CCCCN(C(=O)C1CC(=O)N(c2ccc(CC)cc2)C1)c1c(N)n(CCC)c(=O)[nH]c1=O` (configuration not stated), the “activity change, negative = growth inhibition” value was inactive: -23.9%. In the case of `C=C[C@@]1(C)CC(=O)[C@@]2(O)[C@@]3(C)[C@@H](O)CCC(C)(C)[C@@H]3[C@H](OC(=O)CCN(C)C)[C@H](OC(C)=O)[C@@]2(C)O1`, the Potency is reported as inconclusive [inhibitor, single point]. In the case of `COc1ccc(N2CCN(c3ccc([N+](=O)[O-])cc3Cl)CC2)cc1`, the “activity change, negative = growth inhibition” value is reported as inactive: -8.72%. With `O=C(NCCCN1CCOCC1)c1ccc(Sc2cccc(Cl)c2)c([N+](=O)[O-])c1` the Potency was inconclusive [inhibitor, single point]. For `COCCNc1nc(C)cc(-c2cc(-c3ccc(Cl)cc3)on2)n1`, the Potency was inconclusive [inhibitor, single point]. In the case of `O=C(CCCc1ccccc1)NC1CC(=O)N(c2ccc(Cl)cc2)C1` (configuration not stated), the Potency is reported as inconclusive [inhibitor, single point]. For `COc1ccccc1Nc1nc(N)nc(CSC(=S)N2CC(C)CC(C)C2)n1` (configuration not stated), the Potency was inconclusive [inhibitor, single point]. In the case of `CCNCCC(CCC(C)C)c1ccc2c(c1)OCO2` (configuration not stated), the Potency is reported as inconclusive [inhibitor, partial curve]. With `O/N=C1/CC/C(=N\O)c2nn(-c3ccccc3)nc21` the Potency was active: 14.6 µM. In the case of `CCOc1nc(S(=O)(=O)c2ccc(C)cc2)c(Cl)s1`, the Potency is reported as inconclusive [inhibitor, single point]. With `Cc1cccc(N2CCN(Cc3cn(C)nc3-c3ccccc3F)CC2)n1` the Potency was active: 1.84 µM. For `COc1ccc(NC(=S)N2CCC(C(=O)c3ccc(C)cc3)CC2)cc1`, the Potency was inconclusive [inhibitor, single point]. For `CC1CCC(NCc2ccco2)CC1` (configuration not stated), the “activity change, negative = growth inhibition” value was inactive: -1.96%. For `CCOC(=O)c1cc(-c2ccccc2)sc1NC(=O)c1ccc(OC)cc1`, the Potency was active: 7.31 µM. For `O=C(O)c1ccc(/C=C(\c2nc3ccccc3[nH]2)c2nc3ccccc3s2)cc1`, the Potency was inconclusive [inhibitor, single point].
